Results reported in article PMC3718817 (2013).
Results are given in words; binding and its absence hold for the method and conditions named. For some assays here: In cells and extracts the contact can be indirect. Some entries that bind do so weakly or less than the wild type. For some assays here: Where a sequence is shown, tags or fusion partners need not be part of it.

Protein sequences, listed by entry. Tags and fused reporters are not part of them.
UniProt P32598: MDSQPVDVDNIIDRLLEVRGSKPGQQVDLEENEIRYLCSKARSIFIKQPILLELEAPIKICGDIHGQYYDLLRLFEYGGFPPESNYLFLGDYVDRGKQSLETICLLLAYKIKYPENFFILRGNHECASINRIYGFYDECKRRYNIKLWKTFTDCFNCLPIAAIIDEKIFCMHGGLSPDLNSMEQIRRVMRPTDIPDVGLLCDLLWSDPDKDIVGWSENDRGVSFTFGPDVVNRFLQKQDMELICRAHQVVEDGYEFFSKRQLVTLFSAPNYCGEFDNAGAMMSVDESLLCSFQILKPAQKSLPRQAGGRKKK
UniProt Q12464: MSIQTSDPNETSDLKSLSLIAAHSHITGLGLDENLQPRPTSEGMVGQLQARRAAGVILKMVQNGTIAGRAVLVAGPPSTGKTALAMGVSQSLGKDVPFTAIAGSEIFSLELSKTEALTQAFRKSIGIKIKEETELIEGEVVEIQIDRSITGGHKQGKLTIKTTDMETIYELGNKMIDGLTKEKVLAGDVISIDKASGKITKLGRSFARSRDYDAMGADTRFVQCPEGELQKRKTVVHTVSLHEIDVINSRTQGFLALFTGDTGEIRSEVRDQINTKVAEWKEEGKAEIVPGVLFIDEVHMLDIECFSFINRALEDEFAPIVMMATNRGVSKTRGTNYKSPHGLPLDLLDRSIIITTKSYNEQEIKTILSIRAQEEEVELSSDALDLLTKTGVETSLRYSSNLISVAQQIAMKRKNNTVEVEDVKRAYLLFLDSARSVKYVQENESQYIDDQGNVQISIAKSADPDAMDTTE
UniProt Q03940: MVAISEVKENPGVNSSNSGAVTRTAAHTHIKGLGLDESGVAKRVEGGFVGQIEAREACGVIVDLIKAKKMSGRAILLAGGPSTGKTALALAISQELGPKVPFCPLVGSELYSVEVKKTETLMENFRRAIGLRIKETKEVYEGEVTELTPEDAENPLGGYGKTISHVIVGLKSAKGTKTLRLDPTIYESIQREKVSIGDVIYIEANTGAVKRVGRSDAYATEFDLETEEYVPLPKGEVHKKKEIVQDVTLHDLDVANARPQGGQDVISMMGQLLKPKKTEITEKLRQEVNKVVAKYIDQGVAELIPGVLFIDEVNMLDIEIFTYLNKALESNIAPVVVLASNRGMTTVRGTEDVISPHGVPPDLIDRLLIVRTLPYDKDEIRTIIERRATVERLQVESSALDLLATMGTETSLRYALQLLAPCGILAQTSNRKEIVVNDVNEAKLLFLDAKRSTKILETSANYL
UniProt P38873: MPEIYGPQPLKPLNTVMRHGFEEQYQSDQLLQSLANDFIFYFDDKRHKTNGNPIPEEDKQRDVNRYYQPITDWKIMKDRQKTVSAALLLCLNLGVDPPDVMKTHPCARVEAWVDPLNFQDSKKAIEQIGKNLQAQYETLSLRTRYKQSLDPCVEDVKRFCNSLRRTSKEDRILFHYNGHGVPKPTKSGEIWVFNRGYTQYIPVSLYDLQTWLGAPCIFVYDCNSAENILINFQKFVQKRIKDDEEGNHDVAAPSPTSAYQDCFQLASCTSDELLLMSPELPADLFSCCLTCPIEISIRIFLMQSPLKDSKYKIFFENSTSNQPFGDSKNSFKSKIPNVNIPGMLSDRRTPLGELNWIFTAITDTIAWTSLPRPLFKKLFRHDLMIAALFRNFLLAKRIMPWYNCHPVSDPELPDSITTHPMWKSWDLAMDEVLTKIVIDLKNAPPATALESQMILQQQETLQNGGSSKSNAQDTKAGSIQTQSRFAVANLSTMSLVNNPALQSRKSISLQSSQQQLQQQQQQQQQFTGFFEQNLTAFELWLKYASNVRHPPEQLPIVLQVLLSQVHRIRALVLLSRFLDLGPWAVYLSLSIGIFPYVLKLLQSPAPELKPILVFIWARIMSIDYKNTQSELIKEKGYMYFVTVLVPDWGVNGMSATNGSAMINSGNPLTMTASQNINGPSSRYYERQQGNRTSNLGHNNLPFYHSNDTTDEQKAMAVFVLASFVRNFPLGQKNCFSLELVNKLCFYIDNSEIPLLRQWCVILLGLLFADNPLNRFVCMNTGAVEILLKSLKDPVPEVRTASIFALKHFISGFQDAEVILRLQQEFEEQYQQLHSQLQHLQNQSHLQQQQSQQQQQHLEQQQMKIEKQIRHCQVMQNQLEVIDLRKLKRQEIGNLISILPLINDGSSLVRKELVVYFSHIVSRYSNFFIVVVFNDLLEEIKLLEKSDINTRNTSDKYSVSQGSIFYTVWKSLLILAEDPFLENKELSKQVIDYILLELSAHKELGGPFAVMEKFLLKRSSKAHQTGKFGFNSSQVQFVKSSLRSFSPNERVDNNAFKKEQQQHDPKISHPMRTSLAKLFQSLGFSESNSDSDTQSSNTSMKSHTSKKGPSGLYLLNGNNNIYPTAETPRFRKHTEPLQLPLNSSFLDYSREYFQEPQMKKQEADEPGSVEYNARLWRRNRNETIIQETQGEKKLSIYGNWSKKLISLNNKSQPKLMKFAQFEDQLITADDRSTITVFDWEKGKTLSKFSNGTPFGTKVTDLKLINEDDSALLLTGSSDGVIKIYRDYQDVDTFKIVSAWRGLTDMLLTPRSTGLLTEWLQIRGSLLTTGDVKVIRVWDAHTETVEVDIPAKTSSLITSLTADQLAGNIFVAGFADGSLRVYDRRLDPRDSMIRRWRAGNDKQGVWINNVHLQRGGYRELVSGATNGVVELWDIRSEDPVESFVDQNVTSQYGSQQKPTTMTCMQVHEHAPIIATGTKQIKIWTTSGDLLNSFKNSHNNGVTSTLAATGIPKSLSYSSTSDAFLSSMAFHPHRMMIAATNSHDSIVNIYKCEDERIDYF

T1: GST-Ahc1 (S. cerevisiae) (UniProt Q12433)
T1 sequence: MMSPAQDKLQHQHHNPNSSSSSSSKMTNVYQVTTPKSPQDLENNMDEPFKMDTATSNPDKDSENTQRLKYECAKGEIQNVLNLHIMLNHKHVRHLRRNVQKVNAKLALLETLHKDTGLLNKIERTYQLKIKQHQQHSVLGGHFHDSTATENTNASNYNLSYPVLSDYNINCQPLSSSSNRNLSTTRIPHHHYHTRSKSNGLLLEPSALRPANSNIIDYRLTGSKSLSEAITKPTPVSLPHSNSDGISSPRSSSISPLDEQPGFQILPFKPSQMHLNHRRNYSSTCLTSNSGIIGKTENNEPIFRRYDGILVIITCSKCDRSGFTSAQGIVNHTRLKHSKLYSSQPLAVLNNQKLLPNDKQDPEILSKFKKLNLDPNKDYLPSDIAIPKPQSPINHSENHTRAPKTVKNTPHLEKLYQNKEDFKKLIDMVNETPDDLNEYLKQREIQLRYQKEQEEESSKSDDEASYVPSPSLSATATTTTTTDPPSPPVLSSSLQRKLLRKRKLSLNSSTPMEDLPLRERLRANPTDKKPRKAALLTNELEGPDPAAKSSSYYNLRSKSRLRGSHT

T2: GST-Ygr130C (S. cerevisiae) (UniProt P53278)
T2 sequence: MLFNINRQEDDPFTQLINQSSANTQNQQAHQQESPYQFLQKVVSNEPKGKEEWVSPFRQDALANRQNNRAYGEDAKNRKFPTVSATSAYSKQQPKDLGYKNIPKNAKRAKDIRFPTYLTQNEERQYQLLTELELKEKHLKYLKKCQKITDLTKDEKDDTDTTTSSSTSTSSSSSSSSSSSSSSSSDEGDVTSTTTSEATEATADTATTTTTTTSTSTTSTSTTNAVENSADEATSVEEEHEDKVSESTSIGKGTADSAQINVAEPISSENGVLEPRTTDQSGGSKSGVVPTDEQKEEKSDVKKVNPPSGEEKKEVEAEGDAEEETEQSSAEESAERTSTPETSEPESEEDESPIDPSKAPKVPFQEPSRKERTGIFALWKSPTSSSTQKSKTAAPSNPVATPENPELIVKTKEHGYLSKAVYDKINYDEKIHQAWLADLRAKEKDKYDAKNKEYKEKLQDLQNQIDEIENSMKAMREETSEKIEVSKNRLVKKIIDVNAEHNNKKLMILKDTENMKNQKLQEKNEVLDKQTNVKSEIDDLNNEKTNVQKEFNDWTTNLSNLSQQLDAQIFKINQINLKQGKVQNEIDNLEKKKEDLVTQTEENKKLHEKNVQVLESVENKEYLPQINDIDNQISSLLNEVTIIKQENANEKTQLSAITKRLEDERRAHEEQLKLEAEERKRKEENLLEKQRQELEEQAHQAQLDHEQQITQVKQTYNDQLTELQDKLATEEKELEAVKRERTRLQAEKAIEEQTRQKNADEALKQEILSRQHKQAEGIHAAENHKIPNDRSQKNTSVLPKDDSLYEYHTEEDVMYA

T3: GST-Snf4 (S. cerevisiae) (UniProt P12904)
T3 sequence: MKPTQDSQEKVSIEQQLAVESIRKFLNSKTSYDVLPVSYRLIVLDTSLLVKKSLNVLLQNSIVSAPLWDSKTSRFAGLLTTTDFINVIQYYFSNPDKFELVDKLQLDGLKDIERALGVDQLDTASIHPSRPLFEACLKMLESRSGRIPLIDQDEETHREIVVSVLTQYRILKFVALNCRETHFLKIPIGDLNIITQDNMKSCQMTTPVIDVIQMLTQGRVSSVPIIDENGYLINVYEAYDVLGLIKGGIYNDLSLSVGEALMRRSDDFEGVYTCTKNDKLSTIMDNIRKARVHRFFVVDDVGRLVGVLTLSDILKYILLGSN

T4: GST-Bub3 (S. cerevisiae) (UniProt P26449)
T4 sequence: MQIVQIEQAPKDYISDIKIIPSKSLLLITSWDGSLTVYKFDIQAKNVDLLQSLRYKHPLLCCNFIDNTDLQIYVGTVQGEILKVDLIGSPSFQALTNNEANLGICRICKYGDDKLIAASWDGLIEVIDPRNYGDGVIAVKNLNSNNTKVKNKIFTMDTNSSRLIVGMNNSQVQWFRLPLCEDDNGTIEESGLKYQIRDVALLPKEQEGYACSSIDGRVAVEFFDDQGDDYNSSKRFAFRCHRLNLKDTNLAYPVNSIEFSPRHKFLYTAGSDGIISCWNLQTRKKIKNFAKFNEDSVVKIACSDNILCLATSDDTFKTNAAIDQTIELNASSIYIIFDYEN

T5: GST-Nop6 (S. cerevisiae) (UniProt Q07623)
T5 sequence: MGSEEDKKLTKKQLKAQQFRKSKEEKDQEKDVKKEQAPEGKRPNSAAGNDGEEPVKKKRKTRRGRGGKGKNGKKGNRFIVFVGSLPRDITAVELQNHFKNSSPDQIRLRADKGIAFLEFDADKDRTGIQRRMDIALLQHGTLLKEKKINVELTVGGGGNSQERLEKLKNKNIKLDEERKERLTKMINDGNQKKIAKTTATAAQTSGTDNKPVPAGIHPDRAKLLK


Experiments:
[1] = biological target: Gal4(1-147)-Glc7 (S. cerevisiae) (UniProt P32598); test: two-hybrid; PJ69-4A with pAS1-GLC7 (Gal4 DNA-binding domain fusion) and Gal4AD-Sds22 fusions; β-galactosidase activity of three independent transformants
GST-Ahc1 (S. cerevisiae) = biological target: T1, GST-Ahc1 (S. cerevisiae); test: pull-down; GST fusion proteins affinity purified from crude extracts of yeast co-expressing HA3-Sds22 or HA3-Sds22-RM45 (galactose and CuSO4 induction); binding and washes with 250 mM NaCl; copurified protein detected by anti-HA immunoblot
GST-Rvb2 (S. cerevisiae) = GST-Rvb2 (S. cerevisiae) (UniProt Q12464); test: as above
[2] = biological target: T2, GST-Ygr130C (S. cerevisiae); test: as above
GST-Snf4 (S. cerevisiae) = biological target: T3, GST-Snf4 (S. cerevisiae); test: as above
GST-Rvb1 (S. cerevisiae) = GST-Rvb1 (S. cerevisiae) (UniProt Q03940); test: as above
GST-Kog1 (S. cerevisiae) = GST-Kog1 (S. cerevisiae) (UniProt P38873); test: as above
GST-Bub3 (S. cerevisiae) = biological target: T4, GST-Bub3 (S. cerevisiae); test: as above
GST-Nop6 (S. cerevisiae) = biological target: T5, GST-Nop6 (S. cerevisiae); test: as above

Row | binding [1] | binding (GST-Ahc1 (S. cerevisiae)) | binding (GST-Rvb2 (S. cerevisiae)) | binding [2] | binding (GST-Snf4 (S. cerevisiae)) | binding (GST-Rvb1 (S. cerevisiae)) | binding (GST-Kog1 (S. cerevisiae)) | binding (GST-Bub3 (S. cerevisiae)) | binding (GST-Nop6 (S. cerevisiae)) | Binder
1 | no binding |  |  |  |  |  |  |  |  | Gal4AD-Sds22-S56am (domain or fragment, UniProt P36047 1-55) MDKNSVNKDSEEKDERHKIEVVDDTNPDFITADSELTQDLPDDVEVIDLVHLKIK
2 |  | no binding | binds | binds | binds | binds | binds | binds | binds | HA3-Sds22 (protein, UniProt P36047 1-338) MDKNSVNKDSEEKDERHKIEVVDDTNPDFITADSELTQDLPDDVEVIDLVHLKIKSLEDLNLYRFKNLKQLCLRQNLIESISEVEVLPHDKIVDLDFYDNKIKHISSNVNKLTKLTSLDLSFNKIKHIKNLENLTDLENLYFVQNSISKIENLSTLKSLKNLELGGNKVHSIEPDSFEGLSNLEEIWLGKNSIPRLINLHPLKNLKILSIQSNKLKKIENLEELTNLEELYLSHNFITKIEGLEKNLKLTTLDVTSNKITSLENLNHLSNLTDIWASFNKIDQSFESLGENLSALSRLETIYLEGNPIQLENKTSYRRKLTMNLPPSLQKIDATYIRG
3 | no binding |  |  |  |  |  |  |  |  | Gal4AD-Sds22-RM45 (protein, UniProt P36047 1-338) MDKNSVNKDSEEKDERHKIEVVDDTNPDFITADSELTQDLPDDVEVIDLVHLKIKSLEDLNLYRFKNLKQLCLRQNLIGSISEVEVLPHDKIVDLDFYDNKIKHISSNVNKLTKLTSLDLSFNKIKHIKNLENLTDLENLYFVQNSISKIENLSTLKSQKNLELGGNKVHSIEPDSFEGLSNLEEIWLGKNSIPRLINLHPLKNLKILSIQSNKLKKIENLEELTNLEELYLSHNFITKIEGLEKNLKLTTLDVTSNKITSLENLNHLSNLTDIWASFNKIDQSFESLGENLSAISRLETIYLEGNPIQLENKTSYRRKLTMNLPPSLQKIDATYIRG
4 |  | no binding | binds | binds | binds | binds | binds | binds | binds | HA3-Sds22-RM45 (protein, UniProt P36047 1-338) MDKNSVNKDSEEKDERHKIEVVDDTNPDFITADSELTQDLPDDVEVIDLVHLKIKSLEDLNLYRFKNLKQLCLRQNLIGSISEVEVLPHDKIVDLDFYDNKIKHISSNVNKLTKLTSLDLSFNKIKHIKNLENLTDLENLYFVQNSISKIENLSTLKSQKNLELGGNKVHSIEPDSFEGLSNLEEIWLGKNSIPRLINLHPLKNLKILSIQSNKLKKIENLEELTNLEELYLSHNFITKIEGLEKNLKLTTLDVTSNKITSLENLNHLSNLTDIWASFNKIDQSFESLGENLSAISRLETIYLEGNPIQLENKTSYRRKLTMNLPPSLQKIDATYIRG
5 | binds |  |  |  |  |  |  |  |  | Gal4AD-Sds22 (protein, UniProt P36047 1-338) MDKNSVNKDSEEKDERHKIEVVDDTNPDFITADSELTQDLPDDVEVIDLVHLKIKSLEDLNLYRFKNLKQLCLRQNLIESISEVEVLPHDKIVDLDFYDNKIKHISSNVNKLTKLTSLDLSFNKIKHIKNLENLTDLENLYFVQNSISKIENLSTLKSLKNLELGGNKVHSIEPDSFEGLSNLEEIWLGKNSIPRLINLHPLKNLKILSIQSNKLKKIENLEELTNLEELYLSHNFITKIEGLEKNLKLTTLDVTSNKITSLENLNHLSNLTDIWASFNKIDQSFESLGENLSALSRLETIYLEGNPIQLENKTSYRRKLTMNLPPSLQKIDATYIRG
6 | binds |  |  |  |  |  |  |  |  | Gal4AD-Sds22 Δ81–171 (protein, UniProt P36047) MDKNSVNKDSEEKDERHKIEVVDDTNPDFITADSELTQDLPDDVEVIDLVHLKIKSLEDLNLYRFKNLKQLCLRQNLIESIEPDSFEGLSNLEEIWLGKNSIPRLINLHPLKNLKILSIQSNKLKKIENLEELTNLEELYLSHNFITKIEGLEKNLKLTTLDVTSNKITSLENLNHLSNLTDIWASFNKIDQSFESLGENLSALSRLETIYLEGNPIQLENKTSYRRKLTMNLPPSLQKIDATYIRG
